Hit rate of the full screen: of about 73,000 compounds, about 2,500 (3.4%) were called active. This list was built around the results that the source calls inconclusive (neither active nor inactive); the mix of calls is not that of the screen. Calls follow the shape of the dose curve; as a rule, active = well fitted inhibition curve with a large enough effect; inconclusive = small, poorly fitted or top-dose-only effect; inactive = no such curve, though single readings can be large or run the other way. A potency beside an inconclusive call is a rough fit, not a confirmed value.
Target: 3-hydroxyacyl-CoA dehydrogenase type-2 (Homo sapiens) (UniProt Q99714)
Sequence of UniProt Q99714 (Q99714 whole entry, looked up): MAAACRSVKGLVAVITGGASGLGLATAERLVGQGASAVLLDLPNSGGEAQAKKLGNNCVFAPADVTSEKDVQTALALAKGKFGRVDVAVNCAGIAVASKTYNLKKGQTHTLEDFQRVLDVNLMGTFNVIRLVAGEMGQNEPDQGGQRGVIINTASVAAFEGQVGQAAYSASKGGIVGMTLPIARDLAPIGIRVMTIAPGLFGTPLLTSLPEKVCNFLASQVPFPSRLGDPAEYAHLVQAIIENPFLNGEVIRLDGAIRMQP
Sequence of UniProt Q99714 (Q99714 whole entry, looked up): as above
Assay: qHTS Assay for Inhibitors of HADH2 (Hydroxyacyl-Coenzyme A Dehydrogenase, Type II); also: nearly all actives have a fitted effect of over 60% in size
Conditions: recombinant HADH2, NADH fluorescence, beta-hydroxybutyryl-CoA; activity change, negative = inhibition: at 57.1 µM (top of the series)
How it was run: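 Activity measured as NADH fluorescence gain (360/450 nm), taken as the change between first and last reads of a 4-min kinetic run. Conditions: pH 9.0 Tris buffer, 20 nM E. coli-expressed His-tagged enzyme, 1 mM NAD+, 90 uM beta-hydroxybutyryl-CoA; 15-min compound preincubation.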
% is scaled to controls: 0 for no effect and ±100 for the full control effect; potency is read from the fitted curve at half-maximal effect; tags tell the direction and shape of the fitted curve.

| Structure (SMILES) | Potency | activity change, negative = inhibition |
| --- | --- | --- |
| Cc1cccc(-n2c(N)c(C(=O)N3CCN(C)CC3)sc2=S)c1 | active: 0.631 µM |  |
| COc1cccc(NC(=O)Nc2cccs2)c1 | inconclusive: 31.6 µM [inhibitor, single point] |  |
| CCOC(=O)c1ccc(NC(=O)c2cc(S(=O)(=O)N3CCOCC3)ccc2O)cc1 | inconclusive: 3.98 µM [inhibitor, single point] |  |
| CC(=O)N=c1sc(S(N)(=O)=O)nn1C | inconclusive: 15.8 µM [inhibitor, single point] |  |
| O=C(Nc1nc(-c2ccc(S(=O)(=O)N3CCCCCC3)cc2)cs1)c1cccs1 | inconclusive: 39.8 µM [inhibitor, single point] |  |
| COc1ccc(OC)c(Nc2nc(-c3sc(N)nc3C)cs2)c1 | inconclusive: 3.16 µM [inhibitor, full curve] |  |
| Cc1ccc2c(c1)cc(CN(Cc1ccc3c(c1)OCO3)S(=O)(=O)c1ccccc1)c1nnnn12 | inconclusive: 31.6 µM [inhibitor, single point] |  |
| O=C(O)c1c2c(c(O)c3c1CN(C1CCCCC1)CO3)OCN(C1CCCCC1)C2 | inconclusive: 3.16 µM [inhibitor, single point] |  |
| CC1(C)CC(=O)C2=C(C1)N(CCN1CCOCC1)C1=C(C(=O)CC(C)(C)C1)C2c1cccc(F)c1 | inconclusive: 39.8 µM [inhibitor, single point] |  |
| c1cncc(-c2nccc(-n3ccnc3)n2)c1 | inconclusive: 20 µM [inhibitor, single point] |  |
| CN(C)CCNc1nc2c(c(=O)n(C)c(=O)n2C)n1C |  | inactive: 7.43% [at 11.4 µM] |
| CC(C)SC(=N)N | inactive |  |
| CCOc1ccc(NC(=O)COc2nsnc2N2CCCCC2)cc1 | inconclusive: 31.6 µM [inhibitor, single point] |  |
| CCc1ccc(C2C(C#N)=C(N)SC(N)=C2C#N)s1 | active: 3.16 µM |  |
| COC(=O)c1ccccc1S(=O)(=O)N(Cc1cc2cc3c(cc2[nH]c1=O)OCO3)C1CCCCC1 | inconclusive: 39.8 µM [inhibitor, single point] |  |
| CC(=O)C(Sc1ccc2nnc(-c3ccncc3)n2n1)C(C)=O | inconclusive: 39.8 µM [inhibitor, single point] |  |
| COc1ccccc1Oc1c(C)oc2c(CN3CCN(C)CC3)c(O)ccc2c1=O | inconclusive: 39.8 µM [inhibitor, single point] |  |
| O=C(O)c1cccc(COc2ccc(CO)cc2Cl)c1 | inconclusive: 20 µM [inhibitor, single point] |  |
| O=C(CSc1ccc(-c2nc3ccccc3[nH]2)cn1)N1CCN(C(=O)c2ccco2)CC1 | inconclusive: 31.6 µM [inhibitor, single point] |  |
| NC(=O)N/N=C1\CC[C@H](O)C[C@@H]1CC(=O)O |  | inactive: -1.14% [at 11.4 µM] |
| Cc1ccc(S(=O)(=O)N(C)CC(=O)N2CCN(c3ccccn3)CC2)cc1 | inconclusive: 31.6 µM [inhibitor, single point] |  |
| C=CCNc1nc(-c2sc(NC(=O)CC)nc2C)cs1 | inconclusive: 25.1 µM [inhibitor, partial curve] |  |
| COC(=O)c1[nH]c2ccccc2c1NC(=O)CN1CCN(Cc2ccc3c(c2)OCO3)CC1 | inconclusive: 39.8 µM [inhibitor, single point] |  |
| O=C(CSc1ccc2nnc(-c3ccc(Cl)cc3)n2n1)N1CCCC1 | inactive |  |
| Cn1c(CN2CCOCC2)nc2cc(NC(=O)c3ccccc3Cl)ccc21 | inactive |  |

| Structure (SMILES) | Potency | activity change, negative = inhibition |
| --- | --- | --- |
| COCCCNc1oc(-c2ccccc2OC)nc1C#N | active: 25.1 µM |  |
| CNc1sc(C(=O)c2cccs2)c(N)c1-c1nc2ccccc2s1 | inconclusive: 31.6 µM [inhibitor, single point] |  |
| S=c1[nH]nc(C2COc3ccccc3O2)o1 (stereo not drawn) | inconclusive: 15.8 µM [inhibitor, partial curve] |  |
| CCOc1ccc(CCNC(=O)CCN2C(=O)COc3ccccc32)cc1OCC | inconclusive: 7.94 µM [inhibitor, single point] |  |
| Cc1ccc2c(c1)c(C)c(C)n2CC(O)Cn1nnc2ccccc21 (stereo not drawn) | inactive |  |
| COc1ccc(C)cc1NC(=O)c1nnn(CCc2ccccc2)c1N | inconclusive: 31.6 µM [inhibitor, single point] |  |
| C=C(C)COc1ccc2oc(C)c(C(=O)OCCOC)c2c1 | inconclusive: 6.31 µM [inhibitor, single point] |  |
| Cc1ccc(C)c2[nH]c(=O)c(CN(CCN3CCCC3)C(=O)Nc3cccc(Cl)c3)cc12 | inactive |  |
| CC1CCN(CCCNC(=O)CN2CCN(Cc3ccc(Cl)cc3)C2=O)CC1 | inactive |  |
| COc1ccc(S(=O)(=O)Nc2cc(C)c(O)cc2C(C)C)cc1 | inconclusive: 31.6 µM [inhibitor, single point] |  |
| CSc1ccc(C2C(C#N)=C(N)Oc3c2ccc(=O)c2c(C)oc(C)c32)cc1 (stereo not drawn) | active: 25.1 µM |  |
| CN(C)/C=C1/Nc2ccccc2C1=O | inconclusive: 25.1 µM [inhibitor, single point] |  |
| Cc1ccsc1-c1nc(CSCC(=O)NCCN2CCCC2)c(C)o1 | inconclusive: 31.6 µM [inhibitor, single point] |  |
| COC(=O)c1[nH]c2ccc(C)cc2c1NC(=O)C1=COCCO1 | inconclusive: 39.8 µM [inhibitor, single point] |  |
| O=C(NCc1ccco1)C1CCCN(S(=O)(=O)c2cccc3nonc23)C1 (stereo not drawn) | inconclusive: 39.8 µM [inhibitor, single point] |  |
| O=c1oc(-c2cccs2)nc2c1cnn2-c1ccccc1 | inconclusive: 3.16 µM [inhibitor, partial curve] |  |
| Cc1occc1C(=O)Nc1ccc2c(c1)CCC2 | inconclusive: 3.98 µM [inhibitor, single point] |  |
| COCCNc1ncnc2ccc(-c3ccccc3OC)cc12 | inconclusive: 39.8 µM [inhibitor, single point] |  |
| Cc1nc2sccn2c(=O)c1CCN1CCC(=C(c2ccc(F)cc2)c2ccc(F)cc2)CC1 | inconclusive: 39.8 µM [inhibitor, single point] |  |
| O=C(OC1CCCCC1)c1ccc2c(c1)C1C=CCC1C(C(=O)O)N2 (stereo not drawn) | active: 6.31 µM |  |
| c1ccc(-n2nnnc2Sc2n[nH]c(-c3ccncc3)n2)cc1 | inactive |  |
| COCCn1c(=O)c(-c2ccccc2)nc2cnc(N3CCNCC3)nc21 | inconclusive: 39.8 µM [inhibitor, single point] |  |
| Cc1ccc(-c2nc3ccccc3n3nnnc23)cc1 | active: 15.8 µM |  |
| CCC(=O)Nc1c(C#N)c2nc3ccccc3nc2n1-c1ccc(C)cc1 | inconclusive: 31.6 µM [inhibitor, single point] |  |
| O=C(O)c1ccc(N2CCCC2=O)cc1 | inactive |  |

| Structure (SMILES) | Potency | activity change, negative = inhibition |
| --- | --- | --- |
| CCn1c(SCC(=O)NCC2CCCO2)nc2cc(S(=O)(=O)N3CCCCC3)ccc21 (stereo not drawn) | inactive |  |
| O=C1c2ccccc2C(=O)c2c(NC(=O)c3ccc4c5c(ncnc35)-c3ccccc3C4=O)cccc21 |  | inactive: 2.68% [at 11.4 µM] |
| Cc1ccc(O)c(N=CC2=C(O)c3ccccc3C2=O)c1 | inconclusive: 15.8 µM [inhibitor, partial curve] |  |
| CCOC(=O)c1ccc2[nH]cc(C(C)=O)c(=O)c2c1 | inconclusive: 31.6 µM [inhibitor, single point] |  |
| O=c1c(-c2cc(F)cc(F)c2)nc2cnc(Nc3ccccc3)nc2n1C[C@H]1CCCO1 | inactive |  |
| CN(C)/C=C1\C(=O)c2ccc(N(C)C)nc2CC1c1ccccc1 (stereo not drawn) | active: 20 µM |  |
| COc1cccc(-c2nc3ccc(O)cc3c(=O)o2)c1 | inconclusive: 31.6 µM [inhibitor, single point] |  |
| O=C(CSc1nc2ccsc2c(=O)n1NC(=O)c1ccccc1)NCc1ccco1 | inconclusive: 39.8 µM [inhibitor, single point] |  |
| COc1ccc(-c2oc3cc(OC)ccc3c2C(=O)c2ccc(C#N)cc2)cc1 | inactive |  |
| CSCCC(NC(=O)c1ccco1)C(=O)OCC(=O)Nc1sccc1C#N (stereo not drawn) | inconclusive: 15.8 µM [inhibitor, partial curve] |  |
| O=C(Nc1ccccc1)N(CCCN1CCOCC1)Cc1cc2cc3c(cc2[nH]c1=O)OCCO3 | inconclusive: 39.8 µM [inhibitor, single point] |  |
| Cc1cc(=O)cc(C)n1-c1ccccc1N1CCOCC1 | inconclusive: 25.1 µM [inhibitor, partial curve] |  |
| Cc1ccc2[nH]c3c(=O)n(CCCN4CCOCC4)cnc3c2c1 | active: 6.31 µM |  |
| N#Cc1c(NC(=O)c2nc3ncccn3n2)sc2c1CCCCC2 | inconclusive: 20 µM [inhibitor, single point] |  |
| Cc1cc2n(n1)C(c1ccc(O)cc1)Nc1ccccc1-2 (stereo not drawn) | inconclusive: 31.6 µM [inhibitor, single point] |  |
| CCCCNc1nc(C)nc2c1nc(-c1ccccc1)n2CCN1CCCCC1 | inconclusive: 39.8 µM [inhibitor, single point] |  |
| COc1cc(NC(=O)c2noc3c2CCC3)c(OC)cc1Cl | active: 12.6 µM |  |
| COc1ccc(Cl)cc1-n1c(=S)sc2c(=O)[nH]c(SCC(=O)NCC3CCCO3)nc21 (stereo not drawn) | inactive |  |
| COC(=O)CCN(C)CCC(=O)OC | inactive |  |
| CC(C)OC(=O)CSc1nc2cccnc2n1C1CCCCC1 | inconclusive: 0.0316 µM [inhibitor, full curve, poor fit] |  |
| CCc1c(C)c2cc(Cl)c(O)c(CN(C)C)c2oc1=O | active: 3.16 µM |  |
| CCOC(=O)c1cncc(NC(=O)c2ccccc2)c1 | inactive |  |
| COc1ccccc1OCC(=O)Nc1nnc(-c2ccco2)s1 | inconclusive: 31.6 µM [inhibitor, partial curve] |  |

Source: PubChem BioAssay AID886 (National Center for Advancing Translational Sciences (NCATS), 2007)
